B1: CPEB3 Ribozyme (parent)
chain: UAACAGGGGGCCACAGCAGAAGCGUUCACGUCGCAGCCCCUGUCAGAUUCUGGUGAAUCUGCGAAUUCUGCUGUAUAUCUC

Read counts are not given, so values of variants with three or more changes are uncertain.

The variants in this data set derive from B1. The experiment in a line: self-cleavage, relative activity (ratio to wild type); higher = more cleavage; in vitro, sequencing. The method in brief:
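Barcoded CPEB3 ribozyme mutants, produced by rounds of error-prone PCR, self-cleaved while being transcribed with T7 RNA polymerase for 5 hours at 37°C and during a subsequent 15 min DNase I step before EDTA was added. Sequencing of template-switched cDNA on Illumina gave cleaved and total reads, and DNA sequencing assigned barcodes to variants. Each variant's relative activity is its cleaved/total read fraction divided by the unmutated ribozyme's fraction, averaged across three batches. A variant needed a minimum of 5 reads.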
With G19C G42A U58C U67C, the self-cleavage is 0.08.
Under A20C A28G A47G stands 0.28; under G19A A45G U60A A65G U66A, 0.07; under A18U U26C U74A, 0.3.
For G19U U41C A65G G70A, the self-cleavage was 0.35.
Regarding G19C A21G A57G A75U, the self-cleavage came to 0.31.
Under A18U G33C U43C A56G stands 0.23; under G19C U25C A35G A45G A57G A65G, 0.06; under A18U U43C A56U A57G U60C U66C U76A, 0.19.
Under A18U U43C U66C A75U U78C stands 0.09; under G19C U26A U69G, 0.09.
Next, G19A A45G G55A U67C U74C: 0.16; A20C C29U U41C U43A A45G C59A U72C: 0.06.
For A18U U41G A47G, the self-cleavage came to 0.29.
Under G19U A56U A64G stands 0.15; under G19U A35U A64G, 0.15.
Under A18U G33A U43A U54A A56U A57G stands 0.13; under G19C G42U U43C U58G U80C, 0.07; under A18U U26C A45G A65G, 0.07.
Regarding A18U U67A A75U, the self-cleavage stood at 0.23.
Next, A18U U43C A57C U67C U76C U80C: 0.1; A20C C29U U51A G52U: 0.17.
With A18U U31C A56U U72G U74C, the self-cleavage was 0.12.
G19C U25A U26C A45U: the self-cleavage was found to be 0.17.
G19U A45U G46A C50U U51A U60C: the self-cleavage turned out to be 0.14.
In the case of A18U U43A U66G, the self-cleavage was 0.35.
For A18U U43A U66C, the self-cleavage turned out to be 0.24.
Next, A18U U49C A64G U76C: 0.2.
In the case of A18U U26C U48C U78C, the self-cleavage is 0.29.
Next, A20C U31C A45U C62A A64C: 0.05.
In the case of A20C U26C A28U C29U A45G C81U, the self-cleavage amounted to 0.08.
Turning to A18U U49C A56U, the self-cleavage turned out to be 0.27.
Next, G19A A45G A47U A64U U66C U76C: 0.03.
Next, A18U U41C U51A U78C: 0.62; G19A A28G C37U: 0.1.
Next, G19U A20G U43G U48G U60C U67A: 0.09.
A20C C27U A47G U51C A56U: the self-cleavage amounted to 0.04.
Next, A20C U54C U67C: 0.14.
Under A18U U25C A64G U72C stands 0.39; under A18U G22U U43A U49C U80A, 0.29.
Next, A18U G42U A45U: 0.26; G19C A28U G52A: 0.23; G19U A35C A75U: 0.23.
For A18U U51A A56G U78C, the self-cleavage worked out at 0.19.
G19A U51C A57G A65C U69C C79G: the self-cleavage came to 0.09.
Under A18U U26A A35U U41C stands 0.17; under A18U C40G A45G U78A, 0.04; under A18U U41A U76A, 0.05.
For the variant G19A U41C U58C U69C U78C, the self-cleavage worked out at 0.08.
Regarding G19U U54C U58C, the self-cleavage turned out to be 0.12.
Next, G19A G33A U54C G70A U80C: 0.08; A20C A45C U51A U78C: 0.22.
Regarding A18U G30A A45U A64G, the self-cleavage came out at 0.14.
Under G19C U67C U80C stands 0.21.
For the variant A18U G53A U54C, the self-cleavage came out at 0.31.
As to A20C U25A U78C, the self-cleavage stood at 0.07.
As to G19U U26C G30U U43C U51A U60C, the self-cleavage is 0.09.
Turning to G19C A21G U43G U48C U72A A75G, the self-cleavage was 0.3.
For the variant A18U U31C U41A A45U U49C U60A U80A, the self-cleavage came to 0.08.
Next, G19U U43C A64U: 0.61.
Next, G19U U41C U66A G73U U80C: 0.11; G19C A20U U26A G46A U66A C79A: 0.19; A18U G30A A65G U78C: 0.05.
Consider G19C C38U A56G, for which the self-cleavage turned out to be 0.17.
Next, A18U U41A U48A: 0.2; A18U U58A C68A: 0.18.
Next, G19A U25C A47G A64G: 0.29; G19U U41C U49C A56G U69A: 0.08; A18U U31C C38U U43A: 0.12.
Consider G19A C27G U41A U43A, for which the self-cleavage is 0.23.
Under G19U A20G G55A U66C stands 0.04.
Next, A18U G24C U49C U72A: 0.07.
Under G19U A64U U76A stands 0.09.
Regarding G19U C32U C34G U43C G53A, the self-cleavage came to 0.05.
A20C C27U U41C A47G U51C A56U: the self-cleavage was 0.25.
G19C G30U U49A: the self-cleavage worked out at 0.11.
Turning to A18U G19A U31C A45C A56G U76A, the self-cleavage turned out to be 0.12.
As to A18U U49A U58C, the self-cleavage stood at 0.21.
Next, G19U G30A A45G A47U U67C: 0.09; A18U U26C C27A U31C U78C U80C: 0.21; G19A G33A U54A: 0.08.
Next, G19U C32U U49C U58C U67C U78C C81U: 0.06.
For the variant A18U U67C U78A, the self-cleavage was 0.19.
Regarding G19U C62U U69A, the self-cleavage came to 0.05.

The values are drawn from the RNAGym collection of RNA variant scans (doi:10.1093/nar/gkz1192).
